# Results as given in PubChem BioAssay AID1159614 (National Center for Advancing Translational Sciences (NCATS), 2016).
# Among all 45,000 compounds or so, about 65 (0.1%) were called active. Calls come from the whole dose curve; as a rule, active = well fitted activation curve with a large enough effect; inconclusive = small, poorly fitted or top-dose-only effect; inactive = no such curve, though single readings can be large or run the other way. The list shows a part of the results.
# Target: Galactocerebrosidase (Homo sapiens) (UniProt P54803)
# Experiment: A Novel Cell-Based Assay to Identify Small Molecules for B -Galactocerebrosidase; note: nearly all actives have a fitted effect of over 65% in size; for activation: 0% is about no effect
# Settings: 145M-Twi-hGALC-G270D cells (Twitcher mouse brain line with human GALC G270D), HMU-beta-Gal fluorescence, 48 h; series mostly up to 57.5 µM; activation: at the top concentration
# Procedure, shortened: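 Fluorescence readout: HMU-β-gal cleavage by mutant GALC (0.1 mM final, citrate/phosphate pH 5.2 with 1 mg/mL taurocholate), stopped with carbonate/bicarbonate plus Triton X-100. Cells: murine Twitcher 145M-Twi expressing human G270D GALC; qHTS for activators.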
# Potency is the fitted concentration of half-maximal effect.
# Sequence of UniProt P54803 (P54803 whole entry, looked up): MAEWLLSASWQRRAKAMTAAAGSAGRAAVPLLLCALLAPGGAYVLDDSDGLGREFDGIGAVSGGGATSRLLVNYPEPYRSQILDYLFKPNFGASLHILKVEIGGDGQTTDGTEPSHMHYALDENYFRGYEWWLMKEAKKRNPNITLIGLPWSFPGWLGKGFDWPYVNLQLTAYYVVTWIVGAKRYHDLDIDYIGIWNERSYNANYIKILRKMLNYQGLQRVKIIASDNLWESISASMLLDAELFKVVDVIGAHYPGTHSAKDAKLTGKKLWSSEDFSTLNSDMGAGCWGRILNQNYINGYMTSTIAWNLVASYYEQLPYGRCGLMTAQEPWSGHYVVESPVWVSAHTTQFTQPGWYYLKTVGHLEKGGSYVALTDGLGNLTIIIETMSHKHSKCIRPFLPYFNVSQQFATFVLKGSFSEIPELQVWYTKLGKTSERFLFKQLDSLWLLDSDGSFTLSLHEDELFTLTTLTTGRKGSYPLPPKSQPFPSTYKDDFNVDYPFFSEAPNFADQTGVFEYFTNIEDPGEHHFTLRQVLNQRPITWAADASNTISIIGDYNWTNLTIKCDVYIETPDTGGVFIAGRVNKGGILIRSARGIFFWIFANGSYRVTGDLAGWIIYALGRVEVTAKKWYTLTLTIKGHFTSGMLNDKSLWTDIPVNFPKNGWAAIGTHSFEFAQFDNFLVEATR
Compound,activation,Potency
Cc1ccc(OCC(=O)Nc2ccc3[nH]c(=O)sc3c2)cc1,inactive: -6.4%,–
CCc1cc2c(cc3c(=O)n(CC(=O)NC4CCCCC4)ncn32)s1,inactive: -3.87%,–
Cc1nn(-c2ccccc2)c2c1N(CCCC(=O)NCc1ccccc1)C(=O)CS2,inactive: -8.33%,–
O=C1CN(C(=O)Nc2ccccc2Cl)C(c2ccccc2)c2c(sc3c2CCCC3)N1 (stereo not drawn),inactive: -9.19%,–
COc1ccc(NC(=O)C(C)Sc2cc(-c3ccccc3)nc(C)n2)cc1Cl (stereo not drawn),inactive: -9.38%,–
COc1ccc(-c2cc(C(=O)NCCc3ccc(OC)c(OC)c3)c3ccccc3n2)cc1,inactive: -20.9%,–
CCCc1cc(=O)oc2cc(C)c3c(C(C)(C)C)coc3c12,inactive: -22.7%,–
COc1cccc(NC(=O)c2ccc3[nH]c(C)cc(=O)c3c2)c1,inactive: -15.3%,–
O=C(CCn1c(=O)c2cccn2c2cccnc21)NCc1ccccc1F,inactive: 4.14%,–
O=C(COc1ccc(F)cc1)Nc1ccccc1OCc1cc(=O)n2ccccc2n1,inactive: -5.59%,–
CCc1nn2c(=O)cc(COC(=O)c3ccc(NC(=O)C4CCCCC4)cc3)nc2s1,inactive: -18.8%,–
CCC1CCc2nc3sc(C(=O)Nc4cccc(C(F)(F)F)c4)c(N)c3cc2C1 (stereo not drawn),–,active: 10 µM
COc1ccc(-c2noc(-c3ccc(NC4CCCCC4)c([N+](=O)[O-])c3)n2)cc1,inactive: -11.6%,–
NC(=O)c1ccccc1O,inactive: -18%,–
COC(=O)c1ccc(Cn2nc(-c3ccc(C)cc3)ccc2=O)cc1,inactive: -2.48%,–
COc1ccc(N(CC(=O)Nc2cc(Cl)ccc2C)S(=O)(=O)c2c(C)noc2C)cc1,inactive: -5.88%,–
CCOc1ccc(NS(=O)(=O)c2ccc3[nH]cc(C(=O)N4CCCCCC4)c(=O)c3c2)cc1,inactive: -14.6%,–
COc1cccc(CNS(=O)(=O)c2ccc(-c3cc(C(F)(F)F)on3)s2)c1,inactive: -8.99%,–
O=C(c1ccc2c(c1)OCCO2)N(Cc1cccnc1)c1nc2c(F)cc(F)cc2s1,inactive: -37%,–
CCOC(=O)c1ccc(N2C(=O)Cc3cc(OCC)c(OCC)cc3C2c2ccccc2)cc1 (stereo not drawn),inactive: -18.6%,–
CCOc1ccc(C(=O)Nc2ccc3oc(-c4ccc(Br)cc4)nc3c2)cc1,inactive: -11.4%,–

Compound,activation,Potency
COc1cccc(CN2C(=O)C3(SCC(=O)N3c3ccc(C(C)C)cc3)c3ccccc32)c1 (stereo not drawn),inactive: -41.3%,–
CCc1cccc(NC(=O)c2oc3ccc4c(c3c2C)C(=O)CC(C)(C)O4)c1,inactive: -10.7%,–
NC(=O)CSc1nnnn1-c1cccc(O)c1,inactive: 5.85%,–
Cn1c(SCc2ccccc2Cl)nc2c([nH]c3ccccc32)c1=O,inactive: -7.02%,–
COCCNC(=O)c1ccc2c(=O)n(CCOC)c(SCC(=O)c3c[nH]c4ccccc34)nc2c1,inactive: -3.66%,–
COc1ccc(N2CCN(C(=O)c3sc4nc5n(c(=O)c4c3C)CCC5)CC2)cc1,inactive: -25.1%,–
Cc1cccc(CCNC(=O)CCc2c(C)nc3ncnn3c2C)c1,inactive: -11.5%,–
Cc1ccccc1-c1nc(SCC(=O)NCC2CCCO2)c2c(=O)n(C)c(=O)n(C)c2n1 (stereo not drawn),inactive: 10.5%,–
COc1ccc(Cc2nc3ccc(C(=O)NCCCN4CCN(C)CC4)cc3o2)cc1,inactive: -12%,–
NC(=O)N[C@@H](CCC(=O)O)C(=O)O,inactive: -8.94%,–
Cc1ccc(OCCSc2nc3ccccc3n2CC(=O)N2CCCCC2)c(C)c1,inactive: 3.62%,–
O=C(Cn1c(=O)n(Cc2ccc(F)cc2)c(=O)c2sc3ccccc3c21)NCc1ccccc1,inactive: -8.25%,–
O=C(Nc1cccc(-c2nc3cc(Cl)ccc3o2)c1)c1ccc(F)cc1,inactive: 8.23%,–
O=C(CCn1cnc2onc(-c3ccc(F)cc3)c2c1=O)N1CCN(c2ccccc2)CC1,inactive: -12.7%,–
COc1cccc(OCc2nc3ccccc3n2C)c1,inactive: -11.6%,–
O=C(NCc1noc2ccccc12)N1CCN(c2ccccc2F)CC1,inactive: -9.31%,–
O=C(CSC1=Nc2ccccc2C2=NC(Cc3ccccc3)C(=O)N12)Nc1ccccc1 (stereo not drawn),inactive: -9.63%,–
COc1ccc(-c2nc3sc(CCNC(=O)C(=O)Nc4ccc(C)cc4C)c(C)n3n2)cc1,inactive: -9.39%,–
Cc1ccc(NC(=O)C2CCC(CNS(=O)(=O)c3cccc4nsnc34)CC2)c(C)c1 (stereo not drawn),inactive: -20.9%,–
O=C(Cn1c(=O)oc2cc(S(=O)(=O)N3CCCC3)ccc21)Nc1ccc(OC(F)(F)F)cc1,inactive: -21.4%,–
Cc1nc2ccc(S(=O)(=O)N(CC(=O)Nc3cccc(C)c3C)Cc3ccccc3)cc2s1,inactive: -3.6%,–

Compound,activation,Potency
Cc1ccc(C)c(Cn2c(C(C)NC(=O)c3ccccc3)nc3ccccc32)c1 (stereo not drawn),inactive: 2.16%,–
COc1ccc(-c2ccc(NS(=O)(=O)c3ccccc3Cl)cc2)nn1,inactive: -6.24%,–
Cc1nc(N2CCOCC2)c2c(C(=O)N3CCN(c4ccc(Cl)cc4)CC3)c(C)oc2n1,inactive: -6.55%,–
COc1ccc(Cn2c(CCC(=O)Nc3cccc(Cl)c3)nc3cccnc32)cc1,inactive: -20%,–
CCOc1cccc2cc(-c3nc(-c4ccc(Cl)cc4)c(C)s3)c(=O)oc12,inactive: -3.24%,–
CCc1ccc(-c2cn3c(n2)sc2cc(C(=O)NCCCc4ccccc4)ccc23)cc1,inactive: -5.29%,–
CCOc1ccc(C(c2c(C)[nH]n(-c3ccccc3)c2=O)c2c(C)[nH]n(-c3ccccc3)c2=O)cc1OC,inactive: -37.6%,–
CCN(CC)CCNC(=O)c1ccc2c(=O)n3nc(Nc4cccc(Cl)c4C)sc3nc2c1,inactive: -16.3%,–
COc1ccc(-c2nsc(NC(=O)c3cccc(OC)c3)n2)cc1,inactive: -5.91%,–
COC(=O)c1ccc(CN(Cc2ccc(OC)c(OC)c2)S(=O)(=O)c2ccc(F)c(C(=O)Nc3cc(C)ccc3C)c2)cc1,inactive: -16.8%,–
CCOc1ccccc1NC(=O)CN1Cc2ccccc2C1=O,inactive: -20.6%,–
N#Cc1nc(/C=C/c2ccc(F)cc2)oc1N1CCCCC1,inactive: -14.8%,–
Cc1cccc(C(=O)NCC(=O)OCc2cc(=O)n3nc(C)sc3n2)c1,inactive: -21%,–
CC(Oc1ccccc1)C(=O)Nc1ccc(C(=O)OCc2cc(=O)n3ccsc3n2)cc1 (stereo not drawn),inactive: -10.5%,–
CCOc1ccccc1CNC(=O)c1ccc2nc(CCc3ccccc3)oc2c1,inactive: -9.46%,–
CCc1nn2c(=O)cc(COC(=O)c3cccs3)nc2s1,inactive: -24.5%,–
Cc1nc(SCC(=O)Nc2ccc(Cl)cc2C(F)(F)F)[nH]c(=O)c1Cc1ccccc1,inactive: 0.493%,–
Cc1ccc(Cn2cc3c(n2)-c2c(oc(C(=O)Nc4ccc(F)cc4F)c2C)CC3)cc1,inactive: -2.25%,–
CCOC(=O)c1ccc(NC(=O)Cn2cc(S(=O)(=O)Cc3ccccc3F)c3ccccc32)cc1,inactive: 6.36%,–
CCCOc1ccccc1C(=O)Nc1ccc(-c2nc3ccc(C)cc3s2)cc1,inactive: -11.8%,–
Cc1cccc(Nc2cc(C)nc3nc(Cc4ccc(Cl)cc4)nn23)c1,inactive: -2.23%,–
